Tests used:
MC-38 cells = test: MC-38 intrasplenic syngeneic colon cancer model; type: in vivo, mouse
Method: Studies of the effects of the 1G04 anti-CD36 antibody on lung cancer were performed in C57BL/6 mice (immuno-competent). The studies included only female mice. All mice were inoculated with commercially available MC-38 cancer cells, transduced with a vector expressing luciferase. MC-38 cells are cells derived from a mouse colon adenocarcinoma (i.e. from a colon cancer). Prior to inoculation, MC-38 cells were cultured in a humidified incubator at 37° C. with 5% CO2 and were grown in DMEM medium supplemented with 5 ug ml^−1 penicillin/streptomycin and 10% FBS (GIBCO).
For each mouse, 1×10^6 MC-38 cells were inoculated intrasplenically. Each mouse was imaged 4 days later, and liver metastasis was confirmed by ex vivo luminescence prior to start of treatment on day 5 after inoculation. As detailed in FIG. 31B, inoculated mice were divided into one of two treatment groups: vehicle injection control (n=13) or 1G04 treatment (n=10). Antibody treatments were administered via intraperitoneal (i.p.) injection at a dose of 10 mg/kg three times per week, while control mice received an equal volume of vehicle on the same schedule. One day prior to the start of treatment, and twice weekly after the start of treatment, all mice were imaged via IVIS. Mice were sacrificed at the end of the treatment period (day 60). […]

4T1 cells = test: 4T1 orthotopic breast cancer model; type: in vivo, mouse; details: 10 mg/kg i.p. three times per week, day 22
Method: Studies of the effects of the 1G04 anti-CD36 antibody on breast cancer were performed in BALB/c mice (immuno-competent). The studies included only female mice. All mice were inoculated with commercially available 4T1 cancer cells (ATCC), transduced with a vector expressing luciferase. 4T1 cells were derived from murine mammary gland tissue (i.e. from a breast cancer). Prior to inoculation, 4T1 cells were cultured in a humidified incubator at 37° C. with 5% CO2, and were grown in RPMI medium supplemented with 5 μg ml^−1 penicillin/streptomycin, 2 mM L-Glutamine and 10% FBS (GIBCO).
For each mouse, 4×10^4 4T1 cells were inoculated orthotopically in the mammary fat pad. Treatment began 5 days after inoculation with 4T1 cells. Mice were divided into one of two treatment groups: vehicle injection control (n=10) or 1G04 treatment (n=10). Antibody treatments were administered via intraperitoneal (i.p.) injection at a dose of 10 mg/kg three times per week, while control mice received an equal volume of vehicle on the same schedule (FIG. 32B). Mice were sacrificed at the end of the treatment period (day 22). Upon sacrifice, organs and tissues were collected for performance of necropsy and ex-vivo IVIS.

mouse CD36 = molecular target: T1, mouse CD36 (Mus musculus, UniProt Q08857); test: ELISA binding to plate-coated mouse CD36; details: recombinant mouse CD36 coated plates
T1 construct: purchased Sino Biological 50422-M08H
Method: To perform ELISA assays, 96-well ELISA plates were coated over night with human CD36 (Sino Biological, reference 10752-H08H) or mouse CD36 (Sino Biological, reference 50422-M08H) recombinant proteins at a concentration of 0.25 mg/ml. After two washes with PBS, plates were blocked with 4% skimmed milk in PBS for 1 hour at 37° C. Blocking solution was discarded and plates were washed five times with 200 μl/well PBS-Tween20 (0.5%). Primary antibodies were either omitted (control blocking solution treatment) or mixed in blocking solution at several dilutions ranging from 0.01 nM to 0.5 μM. The primary antibody solutions were added to the wells and incubated over night at 4° C. After 5 washes with 200 ul/well of PBS-Tween20 (0.5%), plates were incubated for 1 hour at room temperature with a goat anti-mouse HRP-conjugated antibody (Abeam, reference ab97235) diluted 1:2000 in blocking solution. Plates were then washed 5 times with 200 μl/well of PBS-Tween20 (0.5%), incubated with 100 μl/well TMB and detected after 10 minutes, 30 minutes, or 60 minutes with a spectrophotometer at a wave length of 630 nm.

OVCAR-3 cells = test: OVCAR-3 orthotopic mouse model of ovarian cancer (Example 9); type: in vivo
Method: Studies of the effects of the ONA-0-v1 and 1G04 anti-CD36 antibodies on ovarian cancer were performed in NSG mice (immuno-deficient). The studies included only female mice. All mice were inoculated with commercially available OVCAR-3 (ATCC) cancer cells. OVCAR-3 cells were derived from a human progressive adenocarcinoma of the ovary (i.e., from an ovarian cancer). For each mouse, a piece of an OVCAR-3 xenograft was implanted orthotopically. Prior to inoculation, the OVCAR-3 cells were cultured in a humidified incubator at 37° C. with 5% CO2, and were grown in RPMI-1640 supplemented with 5 μg ml^−1 penicillin/streptomycin, 0.01 mg/ml bovine insulin and 20% FBS (GIBCO).
Treatment of the implanted mice began 7 days after implantation with the OVCAR-3 tumor pieces. Inoculated mice were divided into one of three treatment groups: vehicle injection control (n=9), ONA-0-v1 treatment (n=9), or 1G04 treatment (n=9). ONA-0-v1 antibody treatments were administered via intraperitoneal (i.p.) injection daily at a dose of 3 mg/kg. 1G04 antibody treatments were administered via i.p. injection TIW (three-times weekly) at a dose of 10 mg/kg. Control mice received an equal volume of vehicle daily. […] Mice were sacrificed at the end of the treatment period. Upon sacrifice, organs and tissues were collected for performance of necropsy and histopathology analysis.

T1 sequence (Q08857 30-439 limits assumed): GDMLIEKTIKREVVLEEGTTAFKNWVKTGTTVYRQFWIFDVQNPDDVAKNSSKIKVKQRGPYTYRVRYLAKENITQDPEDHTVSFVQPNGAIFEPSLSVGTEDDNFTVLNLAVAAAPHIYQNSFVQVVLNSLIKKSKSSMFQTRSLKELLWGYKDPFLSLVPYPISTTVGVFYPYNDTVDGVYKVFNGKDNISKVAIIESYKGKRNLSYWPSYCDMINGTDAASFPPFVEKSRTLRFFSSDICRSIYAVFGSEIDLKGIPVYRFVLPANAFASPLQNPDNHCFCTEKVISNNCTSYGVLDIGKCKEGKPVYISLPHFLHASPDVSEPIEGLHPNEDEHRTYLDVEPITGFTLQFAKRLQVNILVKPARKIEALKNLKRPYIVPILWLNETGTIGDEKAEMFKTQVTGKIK

B1: 1G04: chimeric ONA-0-v1 IgG1 LALA antibody; heavy chain SEQ ID NO: 21, light chain SEQ ID NO: 23 (antibody)
heavy: QVQLKQSGADLVRPGASVKLSCKASGYTFTDYYINWVKQRPGQGLEWIARIYPGSGNTYYNEKFKGKATLTAEKSSSTAYMQLSSLTSEDSAVYFCARGIGGGFGMDYWGQGTSVTVSS[skipping human IgG1 constant region with changes]
light: SIVMTQTPKFLLVSAGDRITITCKASQSVSDDVAWYQQKPGQSPKLLIYYASNRYTGVPDRFTGSGYGTDFTFTISTVQAEDLAVYFCQQDYSSPLTFGAGTKLEIKRTVAAPSVFIFPPSDEQLKSGTASVVCLLNNFYPREAKVQWKVDNALQSGNSQESVTEQDSKDSTYSLSSTLTLSKADYEKHKVYACEVTHQGLSSPVTKSFNRGEC
modifications: 1G04 heavy chain; 1G04 light chain; 1G06 light chain
MC-38 cells; 10 mg/kg i.p. three times per week
  whole-animal bioluminescence during the study: decreases luminescence
MC-38 cells; at sacrifice
  ex vivo luminescence, liver: 6.67*10^4
4T1 cells
  luminescence in the lungs (ex vivo): 5.96*10^4
Mouse CD36
  binding to mouse CD36 in ELISA: specifically bound
OVCAR-3 cells; ONA-0-v1 3 mg/kg i.p. daily, 1G04 10 mg/kg i.p. TIW
  decrease in total number of metastases relative to vehicle: approximately 35%
OVCAR-3 cells; macroscopic analysis
  mice free of metastasis in the liver: 89%
  mice having 1-2 mm metastasis in the liver: 11%
  mice having 1-2 mm metastasis in the peritoneal wall: 49%
  mice having 2-5 mm metastasis in the liver: none
  mice having 2-5 mm metastasis in the peritoneal wall: 11%
  mice having <1 mm metastasis in the liver: none
  mice having >5 mm metastasis in the peritoneal wall: 7%
  mice metastasis-free in the peritoneal wall: 33%
OVCAR-3 cells; microscopic analysis
  animals free of metastases in the lung: 66%
  mean metastasis number in the lungs per mouse: 1.2
OVCAR-3 cells; mouse, in vivo
  weight of mice throughout the treatment period: remained the same
OVCAR-3 cells; visual inspection of organs, sum per group
  total number of metastases counted: 34

Source: patent US12643954B2, “Anti-CD36 antibodies and their use to treat cancer” (ONA Therapeutics, S.L., priority 2020, dated 2026)
